Screen size: about 310,000 compounds; about 2,200 (0.71%) showed an effect of 50% or more. Effects have a minus sign here. The list shows a part of the results.
What follows are compounds tested against human ether-à-go-go-related gene (hERG) potassium channel (human, UniProt Q12809) (assay: primary screen, population patch clamp on CHO cells stably expressing hERG).
human ether-à-go-go-related gene (hERG) potassium channel, sequence (Q12809 whole entry, looked up): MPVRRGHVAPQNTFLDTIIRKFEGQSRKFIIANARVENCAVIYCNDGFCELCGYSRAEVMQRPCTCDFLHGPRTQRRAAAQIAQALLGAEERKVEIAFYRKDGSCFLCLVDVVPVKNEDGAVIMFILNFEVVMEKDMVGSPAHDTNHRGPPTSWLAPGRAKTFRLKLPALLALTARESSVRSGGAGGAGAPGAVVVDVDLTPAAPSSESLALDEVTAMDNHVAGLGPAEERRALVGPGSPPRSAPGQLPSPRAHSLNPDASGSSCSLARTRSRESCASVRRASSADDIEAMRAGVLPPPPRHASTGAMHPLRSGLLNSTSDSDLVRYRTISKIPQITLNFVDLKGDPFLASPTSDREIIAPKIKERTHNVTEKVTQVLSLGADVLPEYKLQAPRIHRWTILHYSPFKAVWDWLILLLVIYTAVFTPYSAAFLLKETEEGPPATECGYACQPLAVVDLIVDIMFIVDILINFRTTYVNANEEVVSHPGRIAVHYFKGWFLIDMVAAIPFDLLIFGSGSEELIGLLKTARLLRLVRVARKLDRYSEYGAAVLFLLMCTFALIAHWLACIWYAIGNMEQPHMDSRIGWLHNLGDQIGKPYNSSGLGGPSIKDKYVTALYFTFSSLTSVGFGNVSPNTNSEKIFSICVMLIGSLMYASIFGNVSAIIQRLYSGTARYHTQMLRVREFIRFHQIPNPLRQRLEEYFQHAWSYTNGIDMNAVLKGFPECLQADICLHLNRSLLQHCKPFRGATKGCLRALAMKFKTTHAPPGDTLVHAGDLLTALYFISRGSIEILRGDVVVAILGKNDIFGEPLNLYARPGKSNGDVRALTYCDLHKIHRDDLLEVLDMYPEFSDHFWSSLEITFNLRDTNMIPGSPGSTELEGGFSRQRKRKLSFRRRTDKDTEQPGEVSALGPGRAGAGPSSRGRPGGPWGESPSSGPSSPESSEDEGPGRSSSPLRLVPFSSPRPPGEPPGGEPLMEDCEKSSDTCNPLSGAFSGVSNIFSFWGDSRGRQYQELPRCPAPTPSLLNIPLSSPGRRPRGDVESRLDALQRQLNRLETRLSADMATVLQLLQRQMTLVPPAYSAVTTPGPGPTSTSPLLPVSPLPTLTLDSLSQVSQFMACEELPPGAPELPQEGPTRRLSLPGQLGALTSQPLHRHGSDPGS

SMILES | hERG current change (%, negative = inhibition) at 1uM [%]
COc1cc2nc(CN(C)Cc3ccc(Cl)cc3)[nH]c(=O)c2cc1OC | 9.46
O=C(NCc1nnc(SCC(=O)N2CCC(Cc3ccccc3)CC2)o1)c1ccccc1F | 10.1
CC(C)C(Sc1nc(-c2ccccc2)cc(-c2ccccc2)c1C#N)C(=O)O (stereo not drawn) | 9.23
O=C1CC(c2cccc(F)c2)C2=C(CCCC2=O)N1 (stereo not drawn) | 6.26
Cc1cccc(C)c1NC(=O)CN1C(=O)N(C)Cc2ccccc21 | 15.8
NC(=O)c1sc2nc3c(c(-c4ccccc4)c2c1N)CCC3 | -3.97
Cc1ccc(N2CCCCn3c2nc2c3c(=O)n(CC(=O)O)c(=O)n2C)cc1 | 7.61
Cc1ccc(S(=O)(=O)NCCC(=O)OCC(=O)N(Cc2ccccc2)C(C)(C)C)cc1 | 16.9
CN(C)c1nc(C#N)nc(N(C)C)n1 | 7.77
COc1cccc(C2(O)CCN(C(=O)C3CC3)CC2)c1 | 12.7
COc1cccc(N2CC(C(=O)Nc3nnc(SCC(=O)N4CCCC4)s3)CC2=O)c1 (stereo not drawn) | 6.03
O=C(C1=C(O)C(=O)N(CC2CCCO2)C1c1ccc(Cl)cc1)c1ccco1 (stereo not drawn) | 13.5
CC(C)(C)OC(=O)N1CCOCCOCCN(C(=O)OC(C)(C)C)CCOCCOCC1 | 9.77
COc1ccc(/C=N/NC(=O)c2ccccc2)cc1OS(=O)(=O)c1ccccc1 | 6.08
CC(C)Sc1snnc1-c1ccccc1 | 10.7
COc1ccc(C)cc1N(C(=O)CNC(=O)c1ccco1)C(C(=O)NC1CCCC1)c1cccnc1 (stereo not drawn) | 20.4
N#Cc1cccc(C(c2nnnn2CCc2ccccc2)N2CCN(C3CCCCC3)CC2)c1 (stereo not drawn) | -18.3
O=[N+]([O-])c1ccc(COc2ncnc3ccccc23)cc1 | -19.5
O=C(Nc1ccc(C(=O)N2CCOCC2)cc1)c1cccc(Br)c1 | 9.44
CC1CC(=O)Nc2ccccc2N1C(=O)CSc1nnnn1C(C)C (stereo not drawn) | 16.7
COc1ccc(C(=S)N(C)C)cc1OC | 4.46
C=C(C(=O)c1ccccc1)C(C(=C)C(=O)c1ccccc1)c1ccc(OC)cc1 | 7.52
Cc1cc(=O)oc2cc(OCc3ccc(C(=O)OCC(=O)Nc4ccccc4OC(F)F)cc3)ccc12 | 5.85

SMILES | hERG current change (%, negative = inhibition) at 1uM [%]
O=S(=O)(NCCc1csc(-c2cccnc2)n1)c1ccc(F)cc1 | 11
CCOC(=O)C1CCCN(Cc2c(C(=O)N3CCCCC3)nc3c(C)cccn23)C1 (stereo not drawn) | 5.41
COc1cc2cc(-c3ccc(OC)c(OC)c3C)nc(N)c2cc1OC | -4.84
C=C(C)CSc1nc2c(c(=O)[nH]c(=O)n2C)n1CCC(C)C | 7.4
O=C(Nc1nccs1)C(=O)c1c[nH]c2ccccc12 | 16.9
COc1ccc(CC(=O)O/N=C(\N)c2ccncc2)cc1 | 8.17
CCC(C)C(NC(=O)c1ccccc1)C(=O)Nc1ccc(S(=O)(=O)Nc2cc(C)nc(C)n2)cc1 (stereo not drawn) | 10.4
O=C(CC1C(=O)NCCN1Cc1ccccc1C(F)(F)F)NC1CCC1 (stereo not drawn) | 16.7
COc1cccc(NC(=O)c2ccccc2-c2nc(-c3ccc(F)cc3)no2)c1 | 10.3
CCN(Cc1ccccc1)C(c1cccs1)c1nnnn1C1CCCCC1 (stereo not drawn) | 16.9
CN(C)Cc1c(O)ccc2oc(Cc3ccccc3)cc12 | -0.619
Cc1ccc2[nH]c(=O)c(CC(=O)O)c(-c3ccccc3)c2c1 | 13.3
COc1cccc(OCc2cc(C(=O)N3CCN(C4CCCC4)CC3)no2)c1 | 12.5
CCn1cc(C(=O)N2CCCC2)c(=O)c2cc(S(=O)(=O)N3CC(C)CC(C)C3)ccc21 (stereo not drawn) | 11.9
O=C(NC(Cc1ccccc1)C(=O)O)/C(=C/c1ccc(F)cc1)NC(=O)c1ccccc1 (stereo not drawn) | 14.9
O=C(Cn1nc(-c2nn(CC(=O)c3ccccc3)c3[n+]2CCCCC3)[n+]2c1CCCCC2)c1ccccc1.[Br-] | 12.7
C[C@H](C(=O)O)c1ccc(-c2ccccc2)c(F)c1 | 8.62
Cc1[nH]c2ccc(C(=O)NCCN3CCOCC3)cc2c1C | 15.7
C[C@H](NC(=O)c1cc2cc(Cl)ccc2n1C)C(=O)N[C@@H](C(=O)O)c1ccccc1 | 15.3
NC(=S)NC(=O)/C=C/c1ccccc1 | 10.1
CCC(C)[C@H](NC(=O)Nc1ccc(C)cc1C)C(=O)O (stereo partly drawn) | -8.67
CCc1nc(SCC(=O)c2ccc(C)c(C)c2)n[nH]1 | 13.5
